According to PubChem BioAssay AID2060349 (Molecular Pharmacology Branch, DTP, NCI, 2025):
The source holds more than one record for some entries. This list holds those alone. An entry can have further records. The values listed for one entry are repeated measurements (runs, samples, wells, individuals or studies). A date in brackets names the month of the test.

Tested on: 762968-020-R-J2-PDC spheroids viability
Test: Anticancer human tumor 762968-020-R-J2-PDC patient-derived colon carcinoma cell line growth inhibition [TAK]
Conditions: spheroids with HUVEC and MSC
Excerpt: Combinatorial screen of targeted agents with TAK-243 and ipatasertib in multi-cell type tumor spheroids
A high-throughput screen of multi-cell type tumor spheroids was designed to identify active combinations of targeted small molecules and TAK-243 or ipatasertib. Complex spheroids include a stromal component modeled by human endothelial cells (HUVEC) and fibroblasts modeled by human mesenchymal stem cells (MSCs). The concentration ranges selected for each drug and investigational agent were based upon clinically achievable concentrations if the clinical Cmax of the agent was known.
Compounds. […] If the clinical Cmax for an agent had not been determined, the highest concentration tested was 10 microM.
NCI60 Cell Culture. […] The optimal seeding densities for each of the cell lines at each time point assessed were determined prior to performing the concentration response studies. […]
For the pre-screen, cell seeding densities were determined from a titration spanning the range from 5,000 to 313 cells per well. […]
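Note: spheroids exposed to drug for 7 days before readout.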
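Throughout, for viability, T/C: 100% = DMSO vehicle control wells.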

| SMILES | IC50 (compound alone) | viability, T/C (compound alone 30 µM, stronger effect = lower value) |
| --- | --- | --- |
| COc1c(OCCCN2CCOCC2)ccc2c3n(c(=NC(=O)c4cnc(N)nc4)nc12)CCN3 | 73.1 nM [2020-02] and > 1 µM [2020-03] | – |
| CC(C)NCC(C(=O)N1CCN(c2ncnc3c2C(C)CC3O)CC1)c1ccc(Cl)cc1 (configuration not stated) | – | 13.5% [2020-02] and 81, 82.8, 85.4, 85.3, 87, 88, 82.3, 83, 81.2% [2020-03] |
